# Data: the supplement of paper PMC8728848
# This is one part of the list.
# Assays:
# Test in all cases: glycan array binding signal (z-score within array); higher = stronger binding
# Conditions in all cases: glycan notation: IUPAC condensed, linker removed
# [1] = biological target: Gal(b1-4)GlcNAc(b1-3)Gal(b1-4)Glc
# In short: (§1)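 Arrays were curated from the Consortium for Functional Glycomics database, 3228 in total, and kept only where the protein sequence was available. Binding is expressed as a within-array Z-score. This score was averaged across arrays of the same protein sequence at different concentrations or buffers and across linkers, and negative values can be read as non-binding.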
# [2] = biological target: Gal(b1-4)GlcNAc(b1-3)Gal(b1-4)GlcNAc
# In short: as §1
# [3] = biological target: Gal(b1-4)GlcNAc(b1-3)Gal(b1-4)GlcNAc(b1-3)Gal(b1-4)GlcNAc
# In short: as §1
# [4] = biological target: Gal(b1-4)GlcNAc(b1-3)Gal(b1-4)[Fuc(a1-3)GlcNAc(b1-6)]Gal(b1-4)Glc
# In short: as §1
# [5] = biological target: Gal(b1-4)GlcNAc(b1-3)Gal(b1-4)[Fuc(a1-3)]GlcNAc(b1-3)Gal(b1-4)[Fuc(a1-3)]GlcNAc
# In short: as §1
# [6] = biological target: Gal(b1-4)GlcNAc(b1-3)GalNAc
# In short: as §1
# [7] = biological target: Gal(b1-4)GlcNAc(b1-3)[Gal(b1-4)GlcNAc(b1-6)]Gal(b1-4)GlcNAc
# In short: as §1
# [8] = biological target: Gal(b1-4)GlcNAc(b1-3)[Gal(b1-4)GlcNAc(b1-6)]GalNAc
# In short: as §1
# [9] = biological target: Gal(b1-4)GlcNAc(b1-3)[GlcNAc(b1-6)]Gal(b1-4)GlcNAc
# In short: as §1
# [10] = biological target: Gal(b1-4)GlcNAc(b1-6)Gal(b1-4)GlcNAc
# In short: as §1
# [11] = biological target: Gal(b1-4)GlcNAc(b1-6)GalNAc
# In short: as §1
# [12] = biological target: Gal(b1-4)GlcNAc(b1-6)[Gal(b1-3)]GalNAc
# In short: as §1
# [13] = biological target: Gal(b1-6)Gal
# In short: as §1
# [14] = biological target: Gal3S(b1-3)GalNAc
# In short: as §1
# [15] = biological target: Gal3S(b1-3)GlcNAc
# In short: as §1
# [16] = biological target: Gal3S(b1-3)[Fuc(a1-4)]GlcNAc
# In short: as §1
# [17] = biological target: Gal3S(b1-4)Glc
# In short: as §1
# [18] = biological target: Gal3S(b1-4)Glc6S
# In short: as §1
# [19] = biological target: Gal3S(b1-4)GlcNAc
# In short: as §1
# [20] = biological target: Gal3S(b1-4)GlcNAc6S
# In short: as §1
# [21] = biological target: Gal3S(b1-4)[Fuc(a1-3)]Glc
# In short: as §1
# [22] = biological target: Gal3S(b1-4)[Fuc(a1-3)]Glc6S
# In short: as §1
# [23] = biological target: Gal3S4S(b1-4)GlcNAc
# In short: as §1
# [24] = biological target: Gal3S6S(b1-4)GlcNAc
# In short: as §1
# [25] = biological target: Gal3S6S(b1-4)GlcNAc6S
# In short: as §1
# [26] = biological target: Gal4S(b1-4)GlcNAc
# In short: as §1
# [27] = biological target: Gal4S6S(b1-4)GlcNAc
# In short: as §1
# [28] = biological target: Gal6S(b1-3)GlcNAc
# In short: as §1
# [29] = biological target: Gal6S(b1-3)GlcNAc6S
# In short: as §1
# [30] = biological target: Gal6S(b1-4)Glc
# In short: as §1
# [31] = biological target: Gal6S(b1-4)Glc6S
# In short: as §1
# [32] = biological target: Gal6S(b1-4)GlcNAc
# In short: as §1
# [33] = biological target: Gal6S(b1-4)GlcNAc6S
# In short: as §1
# [34] = biological target: GalNAc(a1-3)Gal
# In short: as §1
# [35] = biological target: GalNAc(a1-3)GalNAc
# In short: as §1
# [36] = biological target: GalNAc(a1-3)GalNAc(a1-3)Gal(a1-4)Gal(b1-4)GlcNAc
# In short: as §1
# [37] = biological target: GalNAc(a1-3)GalNAc(b1-3)Gal(a1-4)Gal(b1-4)Glc
# In short: as §1
# [38] = biological target: GalNAc(a1-3)GalNAc(b1-3)Gal(a1-4)Gal(b1-4)GlcNAc
# In short: as §1
# [39] = biological target: GalNAc(b1-3)Gal
# In short: as §1
# [40] = biological target: GalNAc(b1-3)Gal(a1-4)Gal(b1-4)GlcNAc
# In short: as §1
# [41] = biological target: GalNAc(b1-3)Gal(a1-4)Gal(b1-4)GlcNAc(b1-3)Gal(b1-4)Glc
# In short: as §1
# [42] = biological target: GalNAc(b1-3)Gal(a1-6)Gal(b1-4)Glc
# In short: as §1
# [43] = biological target: GalNAc(b1-3)GalNAc
# In short: as §1
# [44] = biological target: GalNAc(b1-4)Gal(b1-4)Glc
# In short: as §1
# [45] = biological target: GalNAc(b1-4)GlcNAc
# In short: as §1
binder,measurement,setting,value
"Eosinophil cationic protein (ECP) (Homo sapiens), P12724 (protein) MVPKLFTSQICLLLLLGLMGVEGSLHARPPQFTRAQWFAIQHISLNPPRCTIAMRAINNYRWRCKNQNTFLRTTFANVVNVCGNQSIRCPHNRTLNNCHRSRFRVPLLHCDLINPGAQNISNCTYADRPGRRFYVVACDNRDPRDSPRYPVVPVHLDTTI",glycan array binding signal (z-score),[1],-0.015
same,glycan array binding signal (z-score),[2],-0.089
same,glycan array binding signal (z-score),[3],-0.376
same,glycan array binding signal (z-score),[4],-0.208
same,glycan array binding signal (z-score),[5],-0.284
same,glycan array binding signal (z-score),[6],-0.361
same,glycan array binding signal (z-score),[7],-0.088
same,glycan array binding signal (z-score),[8],-0.091
same,glycan array binding signal (z-score),[9],-0.113
same,glycan array binding signal (z-score),[10],-0.016
same,glycan array binding signal (z-score),[11],-0.015
same,glycan array binding signal (z-score),[12],-0.081
same,glycan array binding signal (z-score),[13],-0.343
same,glycan array binding signal (z-score),[14],0.215
same,glycan array binding signal (z-score),[15],-0.197
same,glycan array binding signal (z-score),[16],-0.565
same,glycan array binding signal (z-score),[17],-0.164
same,glycan array binding signal (z-score),[18],0.915
same,glycan array binding signal (z-score),[19],0.818
same,glycan array binding signal (z-score),[20],0.063
same,glycan array binding signal (z-score),[21],2.4
same,glycan array binding signal (z-score),[22],1.23
same,glycan array binding signal (z-score),[23],-0.557
same,glycan array binding signal (z-score),[24],2.7
same,glycan array binding signal (z-score),[25],1.89
same,glycan array binding signal (z-score),[26],-0.476
same,glycan array binding signal (z-score),[27],0.637
same,glycan array binding signal (z-score),[28],-0.588
same,glycan array binding signal (z-score),[29],-0.237
same,glycan array binding signal (z-score),[30],0.193
same,glycan array binding signal (z-score),[31],-0.014
same,glycan array binding signal (z-score),[32],-0.171
same,glycan array binding signal (z-score),[33],1.85
same,glycan array binding signal (z-score),[34],0.02
same,glycan array binding signal (z-score),[35],-0.318
same,glycan array binding signal (z-score),[36],-0.338
same,glycan array binding signal (z-score),[37],-0.258
same,glycan array binding signal (z-score),[38],-0.257
same,glycan array binding signal (z-score),[39],-0.382
same,glycan array binding signal (z-score),[40],-0.061
same,glycan array binding signal (z-score),[41],-0.272
same,glycan array binding signal (z-score),[42],-0.24
same,glycan array binding signal (z-score),[43],0.192
same,glycan array binding signal (z-score),[44],-0.123
same,glycan array binding signal (z-score),[45],-0.088
